{"source": "PubChem BioAssay AID1476", "about": "(National Center for Advancing Translational Sciences (NCATS), 2009)", "note": "In all, about 200,000 compounds went through this assay and about 4,500 (2.2%) were called active. The shares of active, inactive and inconclusive entries below differ from those in the screen. The call rests on the fitted dose curve; in most records, active means well fitted inhibition curve with a large enough effect; inconclusive means small, poorly fitted or top-dose-only effect, or effect the other way; inactive means flat fitted curve, though single readings scatter. Where the call is inconclusive, the potency comes from a doubtful curve fit. Potency means the concentration at half of the fitted maximal effect; tags describe the fitted curve by direction and shape.", "data": [{"target": "Cruzipain (Trypanosoma cruzi) (UniProt P25779)", "sequence (P25779 whole entry, looked up)": "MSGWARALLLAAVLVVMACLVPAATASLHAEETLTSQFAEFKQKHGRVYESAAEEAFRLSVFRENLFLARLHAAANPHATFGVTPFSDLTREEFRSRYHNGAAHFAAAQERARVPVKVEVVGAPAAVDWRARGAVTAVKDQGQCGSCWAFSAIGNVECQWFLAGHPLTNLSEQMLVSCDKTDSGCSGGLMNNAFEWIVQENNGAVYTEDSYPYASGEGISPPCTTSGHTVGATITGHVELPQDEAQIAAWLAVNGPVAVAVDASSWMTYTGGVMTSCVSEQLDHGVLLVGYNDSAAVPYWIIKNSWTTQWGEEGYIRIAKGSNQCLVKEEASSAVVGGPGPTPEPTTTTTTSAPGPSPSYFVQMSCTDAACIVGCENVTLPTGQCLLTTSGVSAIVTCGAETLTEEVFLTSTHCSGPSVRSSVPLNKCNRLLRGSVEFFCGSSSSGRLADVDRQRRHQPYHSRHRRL", "assay": "qHTS Assay for Promiscuous and Specific Inhibitors of Cruzain (without detergent); further: nearly all actives have a fitted effect of over 40% in size;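 on max response, negative = inhibition: plate controls were enzyme without inhibitor for no effect and buffer without enzyme for full effect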", "details": "purified cruzain, Z-FR-AMC fluorescence, no detergent", "method_in_brief": "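Detergent-free condition (0.00005% Triton X-100) in acetate buffer pH 5.5 with DTT. 1.5 nM enzyme and compound were pre-mixed 15 min, then 2 uM Z-FR-AMC substrate added; reaction progress from fluorescence change between first and third reads (60 s).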", "values": [{"smiles": "CCOc1ccc(CN(C(=O)c2oc3ccccc3c2C)C2CCS(=O)(=O)C2)cc1", "note": "(configuration not stated)", "Potency": "inconclusive: 39.8 µM [activator, single point]"}, {"smiles": "CCn1c(CNc2ccc(F)cc2)nnc1SCCN1CCCCC1", "max response, negative = inhibition": "inactive: -1.23%"}, {"smiles": "CCOC(=O)C1=C(N)Oc2cc(C)oc(=O)c2C12C(=O)N1c3c(cc(OC)cc32)C(C)=CC1(C)C", "note": "(configuration not stated)", "Potency": "inconclusive: 10 µM [activator, single point]"}, {"smiles": "COc1ccc(-c2cc(C(=O)NCCc3ccc(Cl)cc3)[nH]n2)cc1", "Potency": "inconclusive: 39.8 µM [inhibitor, single point]"}, {"smiles": "Cc1ccc2nc(-c3ccc(NC(=O)COC(=O)c4ccc(Br)o4)cc3)sc2c1", "Potency": "active: 12.6 µM"}, {"smiles": "CCOC(=O)c1[nH]c2ccccc2c1NC(=O)c1cc(OC)cc(OC)c1", "max response, negative = inhibition": "inactive: -0.674%"}, {"smiles": "CCOc1ccc(C)cc1S(=O)(=O)Nc1ccc(Cl)cn1", "Potency": "inconclusive: 31.6 µM [inhibitor, single point]"}, {"smiles": "Cc1ccc(CNC(=O)CSCc2nc(-c3ccc(Cl)cc3)oc2C)cc1", "max response, negative = inhibition": "inactive: 4.64%"}, {"smiles": "O=C(C1CCC(=O)N1Cc1ccccc1Cl)N1CCN(c2ccc(F)cc2)CC1", "note": "(configuration not stated)", "Potency": "inconclusive: 39.8 µM [activator, single point]"}, {"smiles": "O=C(Nc1ccc(Cl)c(Cl)c1)N1CC=C(c2ccccc2)CC1", "Potency": "active: 31.6 µM"}, {"smiles": "C=CC(=O)CC", "max response, negative = inhibition": "inactive: 2.83%"}, {"smiles": "O=S(=O)(c1ccc(Cl)cc1)N1c2ccccc2Oc2nc3ccccc3nc21", "Potency": "inconclusive: 39.8 µM [inhibitor, single point]"}, {"smiles": "COc1ccccc1/C=C(\\NC(=O)c1ccc(OC)c(OC)c1)C(=O)Nc1cc([N+](=O)[O-])ccc1C", "Potency": "inconclusive: 25.1 µM [activator, partial curve]"}, {"smiles": "O=C(Nc1cccc(Cl)c1)Nc1cc(S(=O)(=O)N2CCCCC2)ccc1Cl", "Potency": "inconclusive: 39.8 µM [inhibitor, single point]"}, {"smiles": "COc1ccc(C2CC(c3cccc(Cl)c3)n3nc(N)nc3N2)cc1", "note": "(configuration not stated)", "max response, negative = inhibition": "inactive: -1.99%"}, {"smiles": "O=C(NCc1ccc(F)cc1)c1ccc2c(c1)N(Cc1c(F)cccc1Cl)C(=O)CS2", "Potency": "inconclusive: 39.8 µM [inhibitor, single point]"}, {"smiles": "CC1=C(c2ccc(C)cc2)S(=O)(=O)N(Cc2ccc(C(=O)NCc3ccccc3)cc2)C1=O", "Potency": "inconclusive: 39.8 µM [inhibitor, single point]"}, {"smiles": "CCCCSc1c(C)c2cc3c(cc2[nH]c1=O)OCO3", "Potency": "inconclusive: 31.6 µM [inhibitor, single point]"}, {"smiles": "COc1cccc(-c2csc(N3CCN(C(=S)Nc4cccc(Cl)c4)CC3)n2)c1", "Potency": "inconclusive: 39.8 µM [inhibitor, single point]"}, {"smiles": "CC1CCc2nc(NC(=O)c3ccc(S(=O)(=O)N4CCCc5ccccc54)cc3)sc2C1", "note": "(configuration not stated)", "Potency": "active: 7.94 µM"}, {"smiles": "COc1ccc(S(=O)(=O)c2c(SC)nn(CC(=O)Nc3ccc(C)c(Cl)c3)c2N)cc1", "max response, negative = inhibition": "inactive: -2.84%"}, {"smiles": "O=C(Nc1cccc(C(F)(F)F)c1)c1cc(-c2ccc(Cl)cc2)on1", "Potency": "inconclusive: 25.1 µM [inhibitor, single point]"}, {"smiles": "O=C(Cc1cccs1)N/N=C/C=C/c1ccccc1", "Potency": "inconclusive: 39.8 µM [inhibitor, single point]"}, {"smiles": "CCCC(=O)n1nc(-c2ccccc2)nc1SC", "Potency": "inconclusive: 39.8 µM [inhibitor, single point]"}, {"smiles": "CCn1cc(C(=O)NCCc2ccc(OC)c(OC)c2)c(=O)c2cc(S(=O)(=O)N3CCOCC3)ccc21", "Potency": "inconclusive: 25.1 µM [activator, partial curve]"}, {"smiles": "Cc1cc(O)c(C(c2ccccc2)N2CCN(c3ccccc3)CC2)c(=O)n1Cc1ccco1", "note": "(configuration not stated)", "Potency": "inconclusive: 31.6 µM [inhibitor, single point]"}, {"smiles": "Nc1nonc1-n1nnc(C(=O)N/N=C/c2ccccc2)c1CSc1ccc(Cl)cc1", "Potency": "inconclusive: 39.8 µM [inhibitor, single point]"}, {"smiles": "Cc1sc2ncnc(Sc3ccccc3C(=O)Nc3ccc(Br)cc3)c2c1C", "Potency": "active: 12.6 µM"}, {"smiles": "S=C(Nc1cccc(Cl)c1)Nc1cccc2cnccc12", "max response, negative = inhibition": "inactive: -14.1%"}, {"smiles": "O=C1c2ccc3c4c(ccc(c24)C(=O)N1NC(=O)C(F)(F)F)CC3", "Potency": "inconclusive: 39.8 µM [inhibitor, single point]"}, {"smiles": "Cc1ccc(NC(=O)COC(=O)CNC(=O)c2ccc(Br)cc2)c(C)c1", "Potency": "active: 15.8 µM"}, {"smiles": "CC(=O)O[C@H]1CC[C@]2(C)C(=CC[C@H]3[C@H]4C[C@H]5O[C@]6(CC[C@H](C)CN6)[C@H](C)[C@@H]5[C@]4(C)CC[C@@H]32)C1", "max response, negative = inhibition": "inactive: -2.14%"}, {"smiles": "CC1CCN(c2nc(-c3cccnc3)nc3scc(-c4ccccc4)c23)CC1", "Potency": "inconclusive: 39.8 µM [inhibitor, single point]"}, {"smiles": "CCOC(=O)c1ccc(NC(=O)CC2C(=O)N(c3cccc(OC)c3)C(=O)N2Cc2cccnc2)cc1", "note": "(configuration not stated)", "Potency": "inconclusive: 39.8 µM [activator, single point]"}, {"smiles": "Cc1ccc2c(=O)cc(C(=O)Nc3ccc(S(=O)(=O)N4CCCCC4C)cc3)oc2c1C", "note": "(configuration not stated)", "max response, negative = inhibition": "inactive: -2.49%"}, {"smiles": "COc1ccc(CCNc2nc(-c3ccco3)cc(C(F)(F)F)n2)cc1OC", "Potency": "inconclusive: 39.8 µM [activator, single point]"}, {"smiles": "O=C(Nc1ncc(Cc2cccc(Cl)c2)s1)c1cccs1", "Potency": "inconclusive: 39.8 µM [inhibitor, single point]"}, {"smiles": "CN1/C(=C/C2CC(=O)N(c3cccc4ccccc34)C2=O)C(C)(C)c2ccccc21", "note": "(configuration not stated)", "Potency": "inconclusive: 39.8 µM [inhibitor, single point]"}, {"smiles": "O=C1OC(c2ccc3c(c2)OCO3)N(C(=O)c2ccc(Cl)c(Cl)c2)c2ccccc21", "note": "(configuration not stated)", "Potency": "active: 31.6 µM"}, {"smiles": "Cc1c(C(=O)N2CCCc3ccccc32)oc2ccc(S(=O)(=O)N3CCOCC3)cc12", "Potency": "inconclusive: 39.8 µM [activator, single point]"}, {"smiles": "CCc1cccc(C)c1NC(=O)CCCn1c(C)c2cnn(-c3ccccc3)c(=O)c2c1C", "max response, negative = inhibition": "inactive: 27.3%"}, {"smiles": "Cc1cc(=O)n(CC(=O)N2CCCc3ccccc32)c2c1c(C)nn2-c1cccc(F)c1", "max response, negative = inhibition": "inactive: -9.32%"}]}]}
